From article PMC12136788
This is one part of the list.

B1: 35659168_35659857_317_CDS_ENSG00000100281_ENST00000216106|human|control|control (ssRNA)
RNA: GGGAGUUCUACAGUCCGACGAUCGUAAUCAUCAGAGGAGUGCUUCCUCUUCUUCUUGUGUGUGUCCGUCCCCAAGAAGUAAAGUUCACUAUCCUUCAACUUCUUCUUGGAAGAAUUCCUGACCUGAGCAGCAAUUUCUUCCUCCAACAGAGGAUUGAGCAUCA
B2: chr11:94923035:94923036:-_ENSG00000149212_ENST00000536441|hu_hu|motif|central (ssRNA)
RNA: GGGAGUUCUACAGUCCGACGAUCUCCAGUUUUGACAAGUUUCUGAAUGUGCUCUUUUGUGAUCAGCCAAGGUCGAUGUGCGGGCAGCUUAUUAAUUUCAUUAAGAUUUUUCAGUCUUUGUGGCACAUAUUCCAAACCAUUCAACAACAGAGGAUUGAGCAUCA
B3: chr16:47694578:47694579:+_ENSG00000102893_ENST00000566044|hu_hu|FALSE|FALSE (ssRNA)
RNA: GGGAGUUCUACAGUCCGACGAUCUUCAGGAGCACUAGGGGUGCUGCUUUGCCGUUUGACUUUUGAAUGUUUGGGAGGUUCUAGUUCCUCAAAACUCUUAAAUUCUGGAAGCUCUUCUGUGUCACUGAUUCGUAGGAAAUCAAGCAACAGAGGAUUGAGCAUCA
B4: 100033694_100036846_4142_CDS_ENSMUSG00000023026_ENSMUST00000100203|mouse|control|control (ssRNA)
RNA: GGGAGUUCUACAGUCCGACGAUCCCGUUCCACAAGACGGACCCUGUCAUGUCUCAGCGACUUCAGAUCCACAUACACAGUUGUUGGAUCCGGCCCUGAGGUUCCCUGUAAACAUAUUGCUACAUUGACUCUGGAUCCAAAAGUCAACAGAGGAUUGAGCAUCA
B5: 107147277_107148150_654_CDS_ENSG00000125266_ENST00000245323|human|control|control (ssRNA)
RNA: GGGAGUUCUACAGUCCGACGAUCACCAGCUUCUAGUUCUGGACGUCUUGUUGGAUCUUUAUUCCUGGUUGAUCCAGCAGAACUUGCAUCUUGUCCAACUUUCAUGAGGAUCUUCAUGGCUCUUGUCUGGCACACCCCUCCCUCCAACAGAGGAUUGAGCAUCA
B6: chr16:17261293:17261294:+_ENSMUSG00000050240_ENSMUST00000090190|mus_mus|motif|central (ssRNA)
RNA: GGGAGUUCUACAGUCCGACGAUCGACAUGCUCAGUGAGGGGCUCUGCUCCUAGUCCCUGAUUUUCUGCAGAUGAGGGUACCGGCAGCCUGGGAGGCCACACAGACCUUGUGUCCUAGGCCUUAAGUGCUGGUAGGUGGGUGGGCAACAGAGGAUUGAGCAUCA
B7: 12098148_12098268_475_CDS_ENSMUSG00000028218_ENSMUST00000108285|mouse|control|control (ssRNA)
RNA: GGGAGUUCUACAGUCCGACGAUCUUGAAGUUUGGCAAACUCAUCAGCAAAGUCUUUCAGACCCUGCUUUAAAUUUGGUGUCUCGGUAGAGGCAUACAGGUUGAUUUCGUUCACUAGGAGGUCGGCUUUGUCUCGAAGCCUGGCCAACAGAGGAUUGAGCAUCA
B8: chr1:202705475:202705476:-_ENSG00000117139_ENST00000367264|hu_hu|FALSE|FALSE (ssRNA)
RNA: GGGAGUUCUACAGUCCGACGAUCCAGUCUUGGCAAAGAAUUCAGAUGUACGGGGAUAGAUCGGCCUCGUGUAACAAGUUCUAUGAGUGUGUCUAACACUGGCACACGUCCUCCAGCCUGCAGGCCCUCUACAUCCUGAAGCCACAACAGAGGAUUGAGCAUCA
B9: chr6:24533737:24533738:+_ENSG00000112294_ENST00000357578|hu_mus|FALSE|FALSE (ssRNA)
RNA: GGGAGUUCUACAGUCCGACGAUCCAGCUGCUCCGCCACUCUCCAGAUCUGGGCCGGGUCUUGAGAGUAAAAGUAACCUGCCAAUCCAACCUCAGCUGCAUUUGCGAUGGCGACGGCCUCUUCCUCCUUAUCAAACUUGAUGACCAACAGAGGAUUGAGCAUCA
B10: 108200678_108200798_6499_CDS_ENSMUSG00000068740_ENSMUST00000090558|mouse|control|control (ssRNA)
RNA: GGGAGUUCUACAGUCCGACGAUCAAUGUUGGGUGUGACGAUGGUGAAGGGGCUUAGGUAGGUGUGCCGCAUAUUCUGGGCAAGGGCGCUGGCGUAAGCCUCAUAGUGCUGGAGCAGCCAGGCGGUGCCACCCUCUGUCUGCUGCAACAGAGGAUUGAGCAUCA
B11: chr19:8913615:8913616:-_ENSMUSG00000071658_ENSMUST00000096259|mus_hu|mus_mus_mus_hu_False|78_88 (ssRNA)
RNA: GGGAGUUCUACAGUCCGACGAUCAGGGUACCAAAACCUUCUGCCUGAGAUAGGUGCCCCACCCUGCAGGGAGUUGCAGCUGAAAGUAUCUGAUGCAGAAGCAGUGACUAUACGAAAGGAGGCCCCUGGGGAGGGCCAGGCCAGCAACAGAGGAUUGAGCAUCA
B12: 72499018_72499138_2910_3pUTR_ENSMUSG00000020794_ENSMUST00000021148|mouse|control|control (ssRNA)
RNA: GGGAGUUCUACAGUCCGACGAUCACCACUCCUACCUUCCCAGUAGUCCUUGAUCUAGCCCAAAGAAACACAAGGUUAUCCAAAGGUAAAUAAGUAUAUUACAGUGCCACUUAUAAGUUCAGAAAUAGUUGUCCCUGAGUUACUCAACAGAGGAUUGAGCAUCA
B13: chr1:163112212:163112213:-_ENSG00000143248_ENST00000313961|hu_hu|hu_hu_hu_mus_False|8_28 (ssRNA)
RNA: GGGAGUUCUACAGUCCGACGAUCUUUUAUUAUCAGUAAGAGUGAGUUACAUACUAGGCAAAGUAUUGGAUACAAUAAUCAGGAAACAAACACUAUUGGUCCAGAAUUUAAAAUAUAAUGAGCGAAGGCUUACAAAUGGACUUACAACAGAGGAUUGAGCAUCA
B14: 179628843_179630482_2732_CDS_ENSMUSG00000000305_ENSMUST00000000314|mouse|control|control (ssRNA)
RNA: GGGAGUUCUACAGUCCGACGAUCAUAGUCGAAGACUAGCAGGGAGUCGUAGGGGGGUGCGGUGGGGUCAUUGUCAGCAGCUCGGAGUCCCUCAUUAAUGAAGUCUCCAAUGUCUCCUGGGUGUGGCACCACAGGCCUGACUGGCAACAGAGGAUUGAGCAUCA
B15: chr11:9308113:9308114:-_ENSG00000166471_ENST00000528080|hu_mus|FALSE|FALSE (ssRNA)
RNA: GGGAGUUCUACAGUCCGACGAUCAUUAGGAAGAAACGGUGUGAUCCUCAAAAAUAUAAUGUAGUUAAUAAGAUGUUCUCUGUGACGCUCUACCUGCUGUGACCAUUUCACUGCCUUCUCUGUUAGGUAUUUGUAUACAACGGGCAACAGAGGAUUGAGCAUCA
B16: chr11:46405157:46405158:+_ENSG00000110492_ENST00000395566|hu_hu|hu_hu_hu_mus_False|18_68 (ssRNA)
RNA: GGGAGUUCUACAGUCCGACGAUCCCCUCCCCACUUUGGGCACUUGGUGUGGGCGUGAGAGGACAGGAUGAUUGAUUAGAGCUGACAGGAAGACAAAAGGCACUGGUGGGUUAUAUCUCGGGCCUGGGGGAGAGGAGGGCUCCGCAACAGAGGAUUGAGCAUCA
B17: 17617275_17622462_2223_CDS_ENSG00000125844_ENST00000246043|human|control|control (ssRNA)
RNA: GGGAGUUCUACAGUCCGACGAUCGCGUGCCUGCACAGCCGUGAUCUCCUGCUCCCGGGCCACCAGCUGCUUUUUCACUUUGGCCUCCCCGGCUGCUGCUUUGGCCUUUUCUGCUGCCAUCUCCUUGUUGAGCUCCCUCAGUUUCAACAGAGGAUUGAGCAUCA
B18: chr1:87185206:87185207:+_ENSG00000097033_ENST00000482504|hu_hu|motif|central (ssRNA)
RNA: GGGAGUUCUACAGUCCGACGAUCUGGGUUGUUUAUACGACUUGGAGCUUUUCUAUCCAGUUUCUCAUAAACAAAUUCUUCGGUCCUGGCAUUUGGAUUUGGCUGCAAUAACACUUCAGUUUGUUUCAUUAUUUUUUCUGUCCACAACAGAGGAUUGAGCAUCA
B19: chr18:16782857:16782858:-_ENSMUSG00000024304_ENSMUST00000115850|mus_hu|FALSE|FALSE (ssRNA)
RNA: GGGAGUUCUACAGUCCGACGAUCGGGAGGAUUACCCGAAUCUGUGAUUAUGAUGGGAACUUCAUAGAUACCAGCUUCAAGAAAUUUUAUCUUUAAAUUAAGCUGAGCAAAAUCACCAUUAAGCCGAGUGAUGGUCCAAUUUCUCAACAGAGGAUUGAGCAUCA
B20: chr4:83978449:83978450:+_ENSG00000138663_ENST00000264389|hu_mus|FALSE|FALSE (ssRNA)
RNA: GGGAGUUCUACAGUCCGACGAUCUAUUGUCUUGUAAGAGAGCUCAUUGUACCUCUGGGCGGCCUCAAUGAAUUUCCUUCUGUAAUCAAGGACACGCGCAUAGCAAACCUUAUAGUGUAUCUGUAACUGUUCAUUUGUGGAUUCCAACAGAGGAUUGAGCAUCA
B21: chr1:165697036:165697037:-_ENSG00000143183_ENST00000464650|hu_hu|FALSE|FALSE (ssRNA)
RNA: GGGAGUUCUACAGUCCGACGAUCUGAAACAAGAAGGAUGCUAUUUGUUUUUCAUUACAUAAACAUUACCUGAACUUAACUAAUCAAUCCACUUAUUUGAUAAAAAUCAUCUAGGACCAAAAGCACUAUCAAGUUUGCUGGCUGCAACAGAGGAUUGAGCAUCA
B22: chr7:54825262:54825263:-_ENSG00000132432_ENST00000352861|hu_hu|hu_hu_hu_mus_False|1_78 (ssRNA)
RNA: GGGAGUUCUACAGUCCGACGAUCCUGCCGGCUGGGCUCCACAAACUGCAUUACCUGCAUGACUGCCGUUGGAUGGCGGAUUGAGAGCGUAGAGACACGUAGCUCAGGAGAGAACCGAGCCCAACGGAACCGGAAGCGGAAUCCCAACAGAGGAUUGAGCAUCA

target: T1, UNK ZnF1-3 (human, UniProt Q9C0B0 31-174); test: nsRBNS (natural sequence RNA bind-n-seq); RBNS binding buffer (assumed for nsRBNS): 25 mM Tris pH 7.5, 150 mM KCl, 3 mM MgCl2, 0.01% Triton X-100, 500 ug/ml BSA, 20 U/ml SUPERase-In, 4 C; UNK is unkempt and MSI1 is Musashi-1; names of the RNAs are library labels; protein concentration not given here; high values mean tight binding
T1 sequence: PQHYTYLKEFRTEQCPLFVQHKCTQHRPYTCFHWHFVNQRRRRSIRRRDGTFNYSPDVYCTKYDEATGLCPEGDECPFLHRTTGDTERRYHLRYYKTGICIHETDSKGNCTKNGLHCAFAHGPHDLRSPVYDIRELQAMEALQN

| Binder | binding signal |
| --- | --- |
| B1 | 0.629 enrichment R |
| B2 | 1.04 enrichment R |
| B3 | 0.862 enrichment R |
| B4 | 0.817 enrichment R |
| B5 | 0.434 enrichment R |
| B6 | 0.68 enrichment R |
| B7 | 0.754 enrichment R |
| B8 | 0.819 enrichment R |
| B9 | 1.35 enrichment R |
| B10 | 0.848 enrichment R |
| B11 | 1.05 enrichment R |
| B12 | 1.56 enrichment R |
| B13 | 2.17 enrichment R |
| B14 | 1.05 enrichment R |
| B15 | 1.45 enrichment R |
| B16 | 2.26 enrichment R |
| B17 | 0.656 enrichment R |
| B18 | 0.321 enrichment R |
| B19 | 0.935 enrichment R |
| B20 | 0.972 enrichment R |
| B21 | 0.886 enrichment R |
| B22 | 1.21 enrichment R |
